# Measured values as given in the supplement of paper PMC4604168 (melanoma cell lines).
# The other results are listed elsewhere or left out. Many values rest on one well or one pass, so single values are uncertain.
# Tests used:
# Assay in all cases: cell count relative to DMSO control; melanoma cells; higher = more viable cells
# Conditions in all cases: library dose: low library concentration; 72 h
# [1] = test system: MZ2-MEL
# [2] = test system: MeWo
# [3] = test system: RPMI7951
# [4] = test system: RVH-421
# [5] = test system: SkMel28
# [6] = test system: SkMel2
# [7] = test system: SkMel30
# [8] = test system: UACC62
# 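Note: cell number obtained by counting DAPI-stained nuclei in high-throughput microscope images with image analysis software, screen run in 1,536-well plates.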
Compound,cell count [1],cell count [2],cell count [3],cell count [4],cell count [5],cell count [6],cell count [7],cell count [8]
"Cc1cn(-c2cc(NC(=O)c3ccc(C)c(Nc4nccc(-c5cccnc5)n4)c3)cc(C(F)(F)F)c2)cn1 [nilotinib] + Cc1cc(Nc2cc(N3CCN(C)CC3)nc(/C=C/c3ccccc3)n2)n[nH]1 [ENMD2076] (first compound 0.2 µM, partner dose 0.04 µM)",102%,105%,92%,70.3%,98.2%,69.6%,115%,85.4%
"Cc1cn(-c2cc(NC(=O)c3ccc(C)c(Nc4nccc(-c5cccnc5)n4)c3)cc(C(F)(F)F)c2)cn1 [nilotinib] + COc1ccc(Cl)c(Nc2nc3ccccc3nc2NS(=O)(=O)c2cccc(NC(=O)C(C)(C)N)c2)c1 [XL147] (first compound 0.2 µM, partner dose 0.8 µM)",92.5%,103%,105%,91.3%,104%,93.6%,80.8%,97.9%
"COc1ccc(C2=N[C@@H](c3ccc(Cl)cc3)[C@@H](c3ccc(Cl)cc3)N2C(=O)N2CCNC(=O)C2)c(OC(C)C)c1 [Nutlin-3] + NC1(c2ccc(-c3nc4ccn5c(=O)[nH]nc5c4cc3-c3ccccc3)cc2)CCC1 [MK2206] (first compound 0.1 µM, partner dose 0.4 µM)",91.9%,98%,104%,91.8%,87.2%,89.1%,112%,86.6%
"Cc1cn(-c2cc(NC(=O)c3ccc(C)c(Nc4nccc(-c5cccnc5)n4)c3)cc(C(F)(F)F)c2)cn1 [nilotinib] + Cn1cnc2c(F)c(Nc3ccc(Br)cc3Cl)c(C(=O)NOCCO)cc21 [selumetinib] (first compound 0.2 µM, partner dose 0.015 µM)",120%,98.6%,104%,75%,88.9%,85.4%,101%,95.8%
"COc1ccc(C2=N[C@@H](c3ccc(Cl)cc3)[C@@H](c3ccc(Cl)cc3)N2C(=O)N2CCNC(=O)C2)c(OC(C)C)c1 [Nutlin-3] + C#Cc1cccc(Nc2ncnc3cc(OCCOC)c(OCCOC)cc23)c1 [erlotinib] (first compound 0.1 µM, partner dose 0.8 µM)",95.8%,104%,114%,83.8%,86.8%,106%,96.1%,80.6%
"Cc1cn(-c2cc(NC(=O)c3ccc(C)c(Nc4nccc(-c5cccnc5)n4)c3)cc(C(F)(F)F)c2)cn1 [nilotinib] + Cn1c(=O)n(-c2ccc(C(C)(C)C#N)cc2)c2c3cc(-c4cnc5ccccc5c4)ccc3ncc21 [NVP-BEZ235] (first compound 0.2 µM, partner dose 0.004 µM)",108%,89.2%,90.9%,92.7%,110%,86.6%,89.1%,112%
"Cc1cn(-c2cc(NC(=O)c3ccc(C)c(Nc4nccc(-c5cccnc5)n4)c3)cc(C(F)(F)F)c2)cn1 [nilotinib] + CCN(CC)CCNC(=O)c1c(C)[nH]c(/C=C2\C(=O)Nc3ccc(F)cc32)c1C [sunitinib] (first compound 0.2 µM, partner dose 0.4 µM)",90.4%,97.3%,107%,109%,96.5%,115%,96.8%,89.1%
"COc1ccc(C2=N[C@@H](c3ccc(Cl)cc3)[C@@H](c3ccc(Cl)cc3)N2C(=O)N2CCNC(=O)C2)c(OC(C)C)c1 [Nutlin-3] + Cc1cc(Nc2cc(N3CCN(C)CC3)nc(/C=C/c3ccccc3)n2)n[nH]1 [ENMD2076] (first compound 0.1 µM, partner dose 0.04 µM)",99.8%,94.3%,90.8%,86.3%,93.4%,104%,84.2%,58.5%
"COc1ccc(C2=N[C@@H](c3ccc(Cl)cc3)[C@@H](c3ccc(Cl)cc3)N2C(=O)N2CCNC(=O)C2)c(OC(C)C)c1 [Nutlin-3] + CN(c1ncccc1CNc1nc(Nc2ccc3c(c2)CC(=O)N3)ncc1C(F)(F)F)S(C)(=O)=O [PF562271] (first compound 0.1 µM, partner dose 0.08 µM)",95%,101%,78.7%,96.9%,114%,93%,92.4%,91.4%
"COc1ccc(C2=N[C@@H](c3ccc(Cl)cc3)[C@@H](c3ccc(Cl)cc3)N2C(=O)N2CCNC(=O)C2)c(OC(C)C)c1 [Nutlin-3] + Nc1nc(F)nc2c1ncn2[C@@H]1O[C@H](CO)[C@@H](O)[C@@H]1O [fludarabine] (first compound 0.1 µM, partner dose 0.2 µM)",97.1%,46.5%,106%,88.2%,84.1%,11.2%,25.6%,62%
"CC(C)C[C@H](NC(=O)[C@H](Cc1ccccc1)NC(=O)c1cnccn1)B(O)O [Bortezomib] + COc1ccc(Cl)c(Nc2nc3ccccc3nc2NS(=O)(=O)c2cccc(NC(=O)C(C)(C)N)c2)c1 [XL147] (first compound 0.001 µM, partner dose 0.8 µM)",71.7%,87.3%,70.7%,71.9%,85.5%,104%,67.5%,88.9%
"Cc1cn(-c2cc(NC(=O)c3ccc(C)c(Nc4nccc(-c5cccnc5)n4)c3)cc(C(F)(F)F)c2)cn1 [nilotinib] + Cn1nnc2c(C(N)=O)ncn2c1=O [temozolomide] (first compound 0.2 µM, partner dose 2 µM)",89.8%,110%,78.7%,96.6%,90.6%,99.3%,102%,79.9%
"Cn1c(=O)n(-c2ccc(C(C)(C)C#N)cc2)c2c3cc(-c4cnc5ccccc5c4)ccc3ncc21 + Clc1ccc(Nc2nnc(Cc3ccncc3)c3ccccc23)cc1 [vatalanib] (first compound 0.004 µM, partner dose 2 µM)",95%,67.3%,73.8%,106%,88.9%,88.8%,83.5%,81.7%
"CC(C)C[C@H](NC(=O)[C@H](Cc1ccccc1)NC(=O)c1cnccn1)B(O)O [Bortezomib] + C=CCNC1=C2C[C@@H](C)C[C@H](OC)[C@H](O)[C@@H](C)/C=C(\C)[C@H](OC(N)=O)[C@@H](OC)/C=C\C=C(/C)C(=O)NC(=CC1=O)C2=O [Tanespimycin] (first compound 0.001 µM, partner dose 0.002 µM)",76.1%,70.8%,73.1%,64.6%,101%,88.5%,53.4%,63%
"Cc1cn(-c2cc(NC(=O)c3ccc(C)c(Nc4nccc(-c5cccnc5)n4)c3)cc(C(F)(F)F)c2)cn1 [nilotinib] + Nc1ccn([C@@H]2O[C@H](CO)[C@@H](O)C2(F)F)c(=O)n1 [gemcitabine] (first compound 0.2 µM, partner dose 0.0004 µM)",97.7%,96.5%,99.3%,94%,76.5%,88.9%,75.6%,94.4%
"Cn1c(=O)n(-c2ccc(C(C)(C)C#N)cc2)c2c3cc(-c4cnc5ccccc5c4)ccc3ncc21 + O=C(O)c1ccc2c(c1)nc(Nc1cccc(Cl)c1)c1ccncc12 [CX4945] (first compound 0.004 µM, partner dose 0.4 µM)",96.7%,70.1%,98.3%,96.9%,76.6%,84.5%,92.7%,97.3%
"CC(C)C[C@H](NC(=O)[C@H](Cc1ccccc1)NC(=O)c1cnccn1)B(O)O [Bortezomib] + CCCS(=O)(=O)Nc1ccc(F)c(C(=O)c2c[nH]c3ncc(Cl)cc23)c1F [PLX4720] (first compound 0.001 µM, partner dose 0.08 µM)",39.9%,71.8%,73.8%,41.5%,93.5%,79.3%,84.2%,45.9%
"Cn1c(=O)n(-c2ccc(C(C)(C)C#N)cc2)c2c3cc(-c4cnc5ccccc5c4)ccc3ncc21 + Cc1nc(Nc2ncc(C(=O)Nc3c(C)cccc3Cl)s2)cc(N2CCN(CCO)CC2)n1 [dasatanib] (first compound 0.004 µM, partner dose 0.004 µM)",78.9%,86.2%,64.7%,93.7%,76.8%,85.8%,73.1%,87.3%
"Cn1c(=O)n(-c2ccc(C(C)(C)C#N)cc2)c2c3cc(-c4cnc5ccccc5c4)ccc3ncc21 + C#Cc1cccc(Nc2ncnc3cc(OCCOC)c(OCCOC)cc23)c1 [erlotinib] (first compound 0.004 µM, partner dose 0.8 µM)",91.9%,89.7%,83.6%,95.6%,78%,87.5%,87.1%,100%
"CC(C)C[C@H](NC(=O)[C@H](Cc1ccccc1)NC(=O)c1cnccn1)B(O)O [Bortezomib] + CC(=O)c1c(C)c2cnc(Nc3ccc(N4CCNCC4)cn3)nc2n(C2CCCC2)c1=O [palbociclib] (first compound 0.001 µM, partner dose 0.04 µM)",58.5%,61%,48.6%,32.1%,81.6%,81.7%,45%,59.5%
"Cc1cc(Nc2cc(N3CCN(C)CC3)nc(/C=C/c3ccccc3)n2)n[nH]1 + OCc1c[nH]c2ccccc12 [Indole-3-carbinol] (first compound 0.04 µM, partner dose 0.8 µM)",87.4%,91.1%,99.2%,87%,103%,100%,88.1%,103%
"COc1ccc(C2=N[C@@H](c3ccc(Cl)cc3)[C@@H](c3ccc(Cl)cc3)N2C(=O)N2CCNC(=O)C2)c(OC(C)C)c1 [Nutlin-3] + CS(=O)(=O)c1ccc(C(=O)Nc2ccc(Cl)c(-c3ccccn3)c2)c(Cl)c1 [vismodegib] (first compound 0.1 µM, partner dose 1 µM)",105%,96.1%,99.1%,88.5%,99.8%,100%,99.8%,104%
